# Measurements as given in PubChem BioAssay (Tox21).
# “And” between values parts separate entries of the source, which are not always exact repeats. Identical values can stand only once. The shares of active, inactive and inconclusive entries below differ from those in the screen. For part of these data: Potencies of inconclusive entries are doubtful fits and often do not repeat. The source made the active and inactive calls. Unless noted, calls follow the shape of the dose curve; as a rule, active = well fitted curve in the direction sought with a large enough effect in the repeat runs; inconclusive = weak or mixed curves; inactive = no such curve, though single readings can be large; an effect the other way counts as inactive or inconclusive.
# Key:
# [1] = qHTS assay for small molecule disruptors of the mitochondrial membrane potential - cell viability (AID 720634; calls by dose curve; also: nearly all actives have a fitted effect of over 20% in size; also: potency is read from the fitted curve at half-maximal effect)
# Procedure, shortened: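 ATP-based luminescent viability readout (CellTiter-Glo, 30 min, room temperature) in HepG2 cells multiplexed with the m-MPI membrane potential dye; compound exposure lasted 1 hr at 37 C.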
# [2] = qHTS assay for small molecule disruptors of the mitochondrial membrane potential (AID 720635); settings: HepG2 mitochondrial membrane potential, Mito-MPS dye ratio; ratio activity, negative = MMP loss: at 83.2 µM (top of the series) unless noted; also: potency is read from the fitted curve at half-maximal effect; as to ratio activity, negative = MMP loss: % is scaled to controls: 0 for no effect and ±100 for the full control effect
# Procedure, shortened: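 Mitochondrial membrane potential tracked with Mito-MPS dye, red aggregates (ex 540/em 590 nm) against green monomers (ex 490/em 535 nm). Compound treatment 1 hr at 37C, dye 30 min in HepG2.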
# [3] = qHTS assay for small molecules that induce genotoxicity in human embryonic kidney cells expressing luciferase-tagged ATAD5 - cell viability (AID 651634; calls by dose curve; also: nearly all actives have a fitted effect of over 25% in size; also: potency is read from the fitted curve at half-maximal effect)
# Procedure, shortened: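 After 15.5 hr incubation with compound at 37C, 5% CO2, HEK293T ATAD5-luciferase cells received CellTiter-Fluor reagent; fluorescence intensity was quantified following 30 min at 37C.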
# [4] = molecular target: Glucocorticoid receptor (Homo sapiens) (UniProt P04150); assay: qHTS assay to identify small molecule antagonists of the glucocorticoid receptor (GR) signaling pathway (AID 720692; active = well fitted inhibition curve with a large enough effect in the signal ratio in the repeat runs, not every such curve was filed as active; inconclusive = weak or mixed curves, or effect the other way; inactive = no such curve, though single readings can be large or run the other way; the % refers to the signal ratio; also: potency is read from the fitted curve at half-maximal effect; as to activity change, negative = inhibition: % is scaled to controls: 0 for no effect and ±100 for the full control effect); settings: GR-bla HeLa, beta-lactamase FRET ratio, dexamethasone-stimulated, 18 h; activity change, negative = inhibition: at 58.5 µM (top of the series) unless noted
# Procedure, shortened: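 Quantitative HTS in antagonist format: HeLa cells expressing endogenous GR and a stably integrated GRE-bla reporter, stimulated with 5 nM dexamethasone (final) alongside test compounds for 18 h.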
# [5] = qHTS assay to test for compound auto fluorescence at 590 nm (red) in HEK293 cell free culture (AID 720683); settings: cell-free medium autofluorescence, Ex540/Em590 red; also: potency is read from the fitted curve at half-maximal effect
# Procedure, shortened: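 Red-channel autofluorescence of compounds in culture medium (DMEM, 10% FBS), no cells, measured at 540/590 nm. Rose Bengal sodium is the reference fluorophore for equivalence.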
# [6] = qHTS assay to identify small molecule antagonists of the glucocorticoid receptor (GR) signaling pathway - cell viability counter screen (AID 720693); settings: GR-bla HeLa viability, CellTiter-Glo luminescence, 18 h, with 5 nM dexamethasone present; viability change, negative = cytotoxic: at 58.5 µM (top of the series); also: nearly all actives have a fitted effect of over 55% in size; also: potency is read from the fitted curve at half-maximal effect
# [7] = qHTS assay to test for compound auto fluorescence at 460 nm (blue) in HEK293 cells (AID 720678); also: % is scaled to controls: 0 for no effect and ±100 for the full control effect
# Procedure, shortened: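 HEK293, 2,000 cells/well, 10% dialyzed FBS; attach 4-5 hr 37C; pin compound or DMSO; o/n 37C/5% CO2; fluorescence 405/460 nm; triamterene-equivalent units.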
# [8] = molecular target: Glucocorticoid receptor (Homo sapiens) (UniProt P04150); assay: qHTS assay to identify small molecule agonists of the glucocorticoid receptor (GR) signaling pathway (AID 720691; active = well fitted activation curve with a large enough effect in the signal ratio in the repeat runs, not every such curve was filed as active; inconclusive = weak or mixed curves, or effect the other way; inactive = no such curve, though single readings can be large or run the other way; the % refers to the signal ratio; also: % is scaled to controls: 0 for no effect and ±100 for the full control effect); settings: GR-bla HeLa, beta-lactamase reporter ratio, 18 h; activation: at 62.4 µM (top of the series) unless noted
# Procedure, shortened: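 Cells: GR-bla HeLa, endogenous GR with stably integrated GRE-beta-lactamase reporter. Treatment 18 h, 37 C, compounds delivered in DMSO. Detection via LiveBLAzer B/G FRET substrate, 2 h RT, fluorescence intensity.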
# Tags tell the direction and shape of the fitted curve or compound fluorescence and quenching.
# UniProt P04150, sequence (P04150 whole entry, looked up): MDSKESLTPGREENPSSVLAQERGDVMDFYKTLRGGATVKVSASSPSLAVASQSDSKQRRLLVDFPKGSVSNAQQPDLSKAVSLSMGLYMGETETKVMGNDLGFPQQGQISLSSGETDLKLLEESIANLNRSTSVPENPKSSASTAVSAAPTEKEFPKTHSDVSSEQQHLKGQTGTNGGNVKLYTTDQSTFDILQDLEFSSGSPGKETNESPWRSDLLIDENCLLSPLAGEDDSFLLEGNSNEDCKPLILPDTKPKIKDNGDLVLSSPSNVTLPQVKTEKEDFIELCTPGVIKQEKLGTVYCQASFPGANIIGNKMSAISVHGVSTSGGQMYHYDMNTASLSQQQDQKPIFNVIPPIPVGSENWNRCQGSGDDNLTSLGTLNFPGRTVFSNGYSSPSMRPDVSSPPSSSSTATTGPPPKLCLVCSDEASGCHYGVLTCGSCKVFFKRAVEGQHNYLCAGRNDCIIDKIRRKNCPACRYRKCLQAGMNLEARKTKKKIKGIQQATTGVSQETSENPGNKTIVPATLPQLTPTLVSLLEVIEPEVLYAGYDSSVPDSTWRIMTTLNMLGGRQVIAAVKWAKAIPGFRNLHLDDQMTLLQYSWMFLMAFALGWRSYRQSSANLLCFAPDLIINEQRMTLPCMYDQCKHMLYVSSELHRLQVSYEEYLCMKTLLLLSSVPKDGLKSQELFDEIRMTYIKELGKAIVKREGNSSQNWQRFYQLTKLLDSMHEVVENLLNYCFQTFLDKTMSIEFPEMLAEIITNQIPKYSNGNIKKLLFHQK
smiles,measurement,setting,value
O=C(/N=N/C(=O)OCc1ccccc1)OCc1ccccc1,Potency,[1],"inconclusive: 68.6 µM [cytotoxic, partial curve, poor fit]"
same,Potency,[2],inconclusive: 68.6 µM [inhibitor]
COc1cc(S(=O)(=O)O)c(C)cc1N=Nc1c(O)ccc2cc(S(=O)(=O)O)ccc12,Potency,[3],active: 27.3 µM
same,Potency,[2],"inconclusive: 48.6 µM [falling, partial curve]"
same,Potency,[4],inactive
O=C1c2ccccc2C(=O)c2c(O)c(O)cc(O)c21,Potency,[3],"inconclusive: 61.1 µM [falling, partial curve, poor fit]"
same,Potency,[5],"inconclusive: 50.1 µM [fluorescent, partial curve, poor fit]"
same,"activity change, negative = inhibition",[4],inconclusive: -11.3%
C=C(C)[C@H]1CC=C(C)C(=O)C1,Potency,[3],"inconclusive: 68.6 µM [falling, single point]"
same,Potency,[4],inactive
CC[C@@H]([C@H](C)O)n1ncn(-c2ccc(N3CCN(c4ccc(OC[C@@H]5CO[C@@](Cn6cncn6)(c6ccc(F)cc6F)C5)cc4)CC3)cc2)c1=O,Potency,[3],"inconclusive: 5.96 µM [falling, partial curve, poor fit]"
same,"activity change, negative = inhibition",[4],inconclusive: -33.1%
same,Potency,[6],"inconclusive: 23.9 µM [cytotoxic, single point]"
N#Cc1cc2ccccc2c2ccccc12,Potency,[1],"inconclusive: 48.8 µM [cytotoxic, partial curve]"
same,Potency,[2],active: 38.8 µM
same,Potency,[4],inactive
O=S1(=O)OC(c2ccc(O)cc2)(c2ccc(O)cc2)c2ccccc21,Potency,[3],"inconclusive: 9.44 µM [falling, partial curve, poor fit]"
same,Potency,[7],inactive
CCC(=O)c1c(O)cc(O)cc1O,Potency,[1],"inconclusive: 33.5 µM [cytotoxic, partial curve, poor fit]"
Cc1cc(CCC(=O)OCCOCCOCCOC(=O)CCc2cc(C)c(O)c(C(C)(C)C)c2)cc(C(C)(C)C)c1O,Potency,[1],"inconclusive: 66.9 µM [cytotoxic, single point]"
same,Potency,[2],active: 59.6 µM
same,Potency,[8],inactive
same,"activity change, negative = inhibition",[4],inconclusive: -0.284%
O=C(c1ccccc1)C1CCC1,Potency,[3],"inconclusive: 27.3 µM [falling, partial curve, poor fit]"
same,"activity change, negative = inhibition",[4],inconclusive: 8.1%
CC(=O)OCC1=C(C(=O)O)N2C(=O)[C@@H](NC(=O)Cc3cccs3)[C@H]2SC1,Potency,[3],inactive
same,Potency,[2],inactive
same,Potency,[6],inactive
O=C(O)CNC(=O)c1ccccc1,Potency,[3],inactive
same,Potency,[2],inactive
same,"activity change, negative = inhibition",[4],inconclusive: 8.53%
COc1ccc(O)cc1,Potency,[3],"inconclusive: 61.1 µM [falling, partial curve, poor fit]"
same,Potency,[2],inactive
same,Potency,[4],inactive
COc1cc([C@H]2Oc3cc([C@H]4Oc5cc(O)cc(O)c5C(=O)[C@@H]4O)ccc3O[C@@H]2CO)ccc1O,Potency,[3],"inconclusive: 54.3 µM [falling, single point]"
same,Potency,[2],active: 29.8 µM and active: 21.6 µM
same,Potency,[4],inconclusive: 48.8 µM [inhibitor]
CCCCCc1ccc(Cl)cc1,Potency,[3],inactive
same,Potency,[8],inactive
CCCc1c2oc(C(=O)O)cc(=O)c2cc2c(=O)cc(C(=O)O)n(CC)c12,Potency,[1],inactive
same,Potency,[2],inactive
C=CC(C)(C)CC(=O)OC,Potency,[3],inactive
same,Potency,[4],inactive
O=C(c1ccccc1)c1ccc(O)cc1,Potency,[1],inactive
C[N+]1(C)CCC(=C(c2ccccc2)c2ccccc2)CC1,Potency,[3],"inconclusive: 0.507 µM [falling, single point]"
same,"ratio activity, negative = MMP loss",[2],inconclusive: 4.09% [at 39.1 µM]
same,Potency,[4],inactive
same,Potency,[6],inactive
Clc1ccc(Sc2cc(Cl)c(Cl)cc2Cl)cc1,Potency,[1],"inconclusive: 53 µM [cytotoxic, partial curve, poor fit]"
same,Potency,[2],active: 1.68 µM and active: 864 nM
O=Cc1ccc(C(=O)O)cc1,Potency,[3],inactive
same,Potency,[2],inactive
same,Potency,[6],inactive
c1ccc2ccccc2c1,Potency,[1],inactive
same,Potency,[2],inactive
CN(CCOc1ccc(CC2SC(=O)NC2=O)cc1)c1ccccn1 (stereo not drawn),Potency,[1],"inconclusive: 60.8 µM [cytotoxic, single point]"
Fc1ccc(C(c2ccc(F)cc2)N2CCN(C/C=C/c3ccccc3)CC2)cc1,Potency,[3],"inconclusive: 47.3 µM [falling, partial curve, poor fit]"
same,Potency,[2],"inconclusive: 1.19 µM [inhibitor, single point]"
same,Potency,[4],"inconclusive: 30.1 µM [inhibitor, single point]"
COC(C)CCO (stereo not drawn),Potency,[1],"inconclusive: 27.3 µM [cytotoxic, partial curve, poor fit]"
same,Potency,[2],"inconclusive: 27.3 µM [rising, single point]"
O=C(O)[C@H](O)[C@@H](O)[C@H](O[C@@H]1O[C@H](CO)[C@H](O)[C@H](O)[C@H]1O)[C@H](O)CO,Potency,[3],inactive
same,Potency,[4],inactive
